According to PubChem BioAssay AID1468 (National Center for Advancing Translational Sciences (NCATS), 2008):
Screen size: about 280,000 compounds; about 1,100 (0.39%) were called active. This list was built around the results that the source calls inconclusive (neither active nor inactive); the mix of calls is not that of the screen. Calls come from the whole dose curve; as a rule, active = well fitted inhibition curve with a large enough effect; inconclusive = small, poorly fitted or top-dose-only effect, or effect the other way; inactive = flat fitted curve, though single readings scatter. Potencies of inconclusive entries are left out as doubtful fits.

What follows are molecules tested against Microtubule-associated protein tau (Homo sapiens) (UniProt P10636) (assay: qHTS for Inhibitors of Tau Fibril Formation, Fluorescence Polarization). Settings: K18 P301L tau heparin fibrillization, Alexa594 FP, 6 h; series mostly up to 57.7 µM.
Chain of UniProt P10636 (P10636 whole entry, looked up): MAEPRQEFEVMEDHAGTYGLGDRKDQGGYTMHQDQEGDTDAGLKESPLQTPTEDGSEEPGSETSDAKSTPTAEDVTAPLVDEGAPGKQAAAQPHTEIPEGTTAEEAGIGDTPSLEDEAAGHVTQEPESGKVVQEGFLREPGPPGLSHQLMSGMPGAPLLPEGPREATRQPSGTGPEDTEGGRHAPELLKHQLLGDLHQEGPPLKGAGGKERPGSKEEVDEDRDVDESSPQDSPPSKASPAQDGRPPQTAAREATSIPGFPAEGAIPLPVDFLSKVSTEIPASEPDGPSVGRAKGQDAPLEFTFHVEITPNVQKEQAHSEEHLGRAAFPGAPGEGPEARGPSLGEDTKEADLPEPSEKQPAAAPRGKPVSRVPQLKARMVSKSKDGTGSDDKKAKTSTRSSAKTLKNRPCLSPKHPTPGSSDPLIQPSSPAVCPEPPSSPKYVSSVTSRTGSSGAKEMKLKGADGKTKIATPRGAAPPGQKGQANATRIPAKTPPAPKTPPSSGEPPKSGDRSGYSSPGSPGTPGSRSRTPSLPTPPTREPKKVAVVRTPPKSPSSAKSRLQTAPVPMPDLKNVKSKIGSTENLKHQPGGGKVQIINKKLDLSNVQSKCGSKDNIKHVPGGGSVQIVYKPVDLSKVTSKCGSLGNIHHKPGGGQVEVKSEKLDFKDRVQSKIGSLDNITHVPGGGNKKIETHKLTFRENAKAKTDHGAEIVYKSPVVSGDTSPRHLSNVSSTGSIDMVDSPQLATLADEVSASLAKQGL
In short: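 K18 P301L tau (15 uM unlabeled/0.24 uM Alexa 594-labeled, final) + compound + heparin 20 uM final; 100 mM NaOAc pH 7; 6 hr 37 C; ThT 30 uM final added, 1 hr RT; FP ex 555/em 632 nm.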
Note: nearly all actives have a fitted effect of over 55% in size.
Potency is the fitted concentration of half-maximal effect; tags give direction and shape of the fitted curve.

| Structure (SMILES) | Potency |
| --- | --- |
| COc1ccc(/C=N/NC(=O)CSc2n[nH]c(=O)[nH]c2=O)cc1 | inconclusive [inhibitor, single point] |
| COc1cccc(CNC(=O)CCc2c(C)c3ccc(O)c(C)c3oc2=O)c1 | inactive |
| CCCCc1ccc(NC(=O)CSC2=C(C#N)C(c3ccco3)C3=C(CCCC3=O)N2)cc1 (centres undefined) | inconclusive [inhibitor, partial curve] |
| Cc1ccc(/C=C2/SC(=O)NC2=S)o1 | active: 10 µM |
| Cc1ccc(-n2ncc(C(=O)NCCCN3CCc4ccccc4C3)c2C2CCN(C(=O)OC(C)(C)C)CC2)c(C)c1 | inconclusive [activator, single point] |
| CCOc1ccccc1C(=O)N1CCOCC1 | inactive |
| Cn1cc(-c2cc3n(n2)CCC(=O)N3CCCC(=O)NCc2ccccc2Cl)c2ccccc21 | inconclusive [activator, partial curve] |
| O=C(c1cccs1)n1nc(-c2ccccc2)nc1NCc1ccco1 | inconclusive [inhibitor, partial curve] |
| Cc1ccc(-n2c(=O)c3ccc(C(=O)NCc4ccccc4Cl)cc3n(CC(=O)Nc3ccc(C)cc3C)c2=O)cc1 | inconclusive [inhibitor, partial curve, poor fit] |
| COc1ccccc1C(=O)Nc1nc(-c2ccc3c(c2)OCCO3)cs1 | inactive |
| O=C(CSc1ncc2c(n1)-c1ccccc1N(Cc1ccc(F)cc1)S2(=O)=O)NCCc1ccccc1 | inconclusive [inhibitor, full curve] |
| CCOC(=O)Cc1csc(SCn2nnc3ccccc3c2=O)n1 | inactive |
| COc1cc(NC(=O)CN(c2cc(C)cc(C)c2)S(=O)(=O)c2c(C)[nH]c(=O)[nH]c2=O)cc(OC)c1 | inactive |
| C#CC(C)(CC)NC(=O)Cn1nnc(-c2ccc(OCc3c(F)cccc3Cl)cc2)n1 (centres undefined) | inconclusive [inhibitor, partial curve, poor fit] |
| CCN(CC)S(=O)(=O)c1ccc2[nH]c(=O)cc(C(=O)Nc3ccc(C)c(S(=O)(=O)N(CC)CC)c3)c2c1 | inconclusive [inhibitor, partial curve] |
| COCCN1Cc2cc3cc(C)ccc3nc2SC1=Nc1cccc(OC)c1 | inactive |
| CC(C)C1OC(c2cccc(NC(=O)c3cccs3)c2)OCC1(C)C (centres undefined) | inconclusive [inhibitor, partial curve] |
| CC(=O)Oc1c(-c2ccco2)oc2ccccc2c1=O | inactive |
| Cc1ccc(Sc2cc(N3CCOCC3)nc(-c3ccccc3)n2)cc1 | inconclusive [inhibitor, single point] |
| CCN1CCN(c2cc(SC(C)C)nc(-c3ccc(OC)cc3)n2)CC1 | inconclusive [inhibitor, partial curve] |
| O=C1OC(/C(=C\Nc2ccccc2)[N+](=O)[O-])c2ccccc21 (centres undefined) | inconclusive [inhibitor, single point] |
| O=C(N/N=C/c1ccc(OCc2ccccc2)cc1)c1ccc(O)cc1 | inconclusive [inhibitor, partial curve] |
| CCOC(=O)c1[nH]c2cc(OC)c(OC)cc2c1NC(=O)CCN1CCSCC1 | inconclusive [activator, single point] |

| Structure (SMILES) | Potency |
| --- | --- |
| COc1ccc(/C(N)=N/OC(=O)c2cccc([N+](=O)[O-])c2)cc1 | inconclusive [inhibitor, partial curve] |
| Cc1ccccc1C1CC(=O)Oc2cc(O)ccc21 (centres undefined) | inconclusive [inhibitor, partial curve] |
| CCc1nnc(NC(=O)c2nc(S(=O)(=O)Cc3cccc(C)c3)ncc2Cl)s1 | inconclusive [inhibitor, single point] |
| COc1ccc(CNC(=O)/C=C/c2ccco2)cc1OC | inactive |
| O=C1O/C(=C/Br)CCC1c1cccc2ccccc12 (centres undefined) | inconclusive [inhibitor, partial curve] |
| CCOc1cc(/C=C(\C#N)c2[nH]nc(N)c2C#N)ccc1O | inactive |
| COc1ccc(NC(=O)Cn2c(=O)n(CCCC(=O)NCc3ccccc3OC)c(=O)c3ccccc32)cc1Cl | inconclusive [inhibitor, partial curve] |
| COc1cccc(/C=N/NC(=O)c2cccs2)c1 | inconclusive [inhibitor, single point] |
| CCN=c1scc(-c2ccc(F)cc2)n1/N=C/c1ccccn1 | inactive |
| Cc1ccc(NC(=O)Nc2ccc(Cl)cc2)c(Br)c1 | inconclusive [inhibitor, partial curve] |
| Cn1c(=O)oc2cc(S(=O)(=O)N3CCC(C(=O)NCc4ccccc4Cl)CC3)ccc21 | inconclusive [inhibitor, partial curve, poor fit] |
| CCCCN(CC)CCNC(=O)Cn1cnc2sc(C)c(S(=O)(=O)N3CCC(C)CC3)c2c1=O | inconclusive [inhibitor, partial curve, poor fit] |
| CC1=C/C(=N\OS(=O)(=O)c2ccccc2)C(C)=CC1=O | inconclusive [inhibitor, partial curve] |
| COC(=O)c1cnn(-c2ccc(C(=O)Nc3cccc(C(C)=O)c3)cc2)c1N | inactive |
| CC(=O)OCC(=O)[C@@]12OC3(CCCC3)OC1CC1C3CCC4=CC(=O)C=C[C@@]4(C)[C@]3(F)C(O)C[C@]12C (some centres undefined) | inconclusive [inhibitor, single point] |
| Cc1cccc(C(=O)Nc2cccc(-c3cnc4ccccc4n3)c2)c1 | inconclusive [inhibitor, partial curve] |
| Cn1c(CSCc2ccc(F)cc2)nnc1SCC(=O)Nc1cccc(C(=O)O)c1 | inactive |
| COc1ccccc1NC(=O)CSCC(N)=O | inconclusive [inhibitor, single point] |
| O=C(COC(=O)c1cc(-c2cccs2)nc2ccccc12)c1ccc(Br)cc1 | inconclusive [inhibitor, partial curve] |
| CC(C)(C)c1ccc(C2Sc3ccccc3NC3=C2C(=O)c2ccccc23)cc1 (centres undefined) | inconclusive [inhibitor, partial curve] |
| Cc1cc(/C(N)=N/OC(=O)Nc2cccc(C(F)(F)F)c2)no1 | inconclusive [inhibitor, single point] |
| COc1cc(OC)nc(NC(=O)CS(=O)(=O)c2ccccc2)n1 | inconclusive [inhibitor, single point] |
| O=C(COC(=O)c1ccc(CSc2ccc(Cl)cc2)cc1)Nc1ccccc1 | inconclusive [inhibitor, partial curve] |

| Structure (SMILES) | Potency |
| --- | --- |
| CCOC(=O)c1cc(S(=O)(=O)Nc2ccc(Br)c(C)c2)[nH]n1 | inactive |
| COc1ccc(-n2c(C)cc(C(=O)CSc3ccc(NC(C)=O)cc3)c2C)cc1 | inactive |
| COc1ccc(Br)cc1CNC(=O)c1cc2ccccn2n1 | inconclusive [inhibitor, full curve, poor fit] |
| Fc1ccc(Nc2ccnc(Nc3ccc(F)cc3)n2)cc1 | inconclusive [inhibitor, single point] |
| Cc1cccc(-n2c(C)n[nH]c2=S)c1C | inactive |
| O=C(c1ccccc1)N1CCN(C2CCCCCC2)CC1 | inactive |
| COc1cccc(C(=O)Nc2ccc(NC(=O)C(C)C)nc2)c1 | inconclusive [inhibitor, single point] |
| COc1cccc(CNCCNC(=O)c2ccco2)c1OC | inactive |
| O=C(COC(=O)c1cccs1)NCc1ccco1 | inactive |
| O=C1C2C3C=CC(C4CC34)C2C(=O)N1/N=C/c1ccc([N+](=O)[O-])o1 (centres undefined) | inactive |
| COc1cccc(C(=O)NC2CC3CCCC(C2)N3CC(=O)Nc2ccccc2)c1 (centres undefined) | inactive |
| C=C(C)Cn1c(SCC(=O)c2ccc(OC)cc2)nc2sc3c(c2c1=O)CCCC3 | inconclusive [inhibitor, single point] |
| COc1ccc(NS(=O)(=O)c2ccc(-n3nnc4ccccc43)c([N+](=O)[O-])c2)cc1 | inconclusive [activator, single point] |
| Cc1cc(C)c2c(CC(=O)Nc3ccc(S(=O)(=O)N4CCCC(C)C4)cc3)coc2c1 (centres undefined) | active: 14.1 µM |
| O=C1CSC(=S)N1/N=C/c1ccc(O)c([N+](=O)[O-])c1 | inconclusive [inhibitor, partial curve] |
| Cc1ccc(OCC(=O)Nc2cccc(OCc3cc(=O)n4ccccc4n3)c2)cc1C | inconclusive [inhibitor, partial curve] |
| COC(=O)c1c(N)n(-c2ccc(N3CCOCC3)cc2)c2nc3ccccc3nc12 | inconclusive [inhibitor, partial curve] |
| Cn1cc2c(=O)n(/N=C/c3ccccc3)cnc2n1 | inactive |
| O=C(N/N=C/c1ccc(Cl)s1)c1ccccc1[N+](=O)[O-] | inconclusive [inhibitor, partial curve, poor fit] |
| CCN(CC)CCC(C)OC(c1ccccc1)c1ccccc1 (centres undefined) | inconclusive [inhibitor, single point] |
| Cc1ccc(N=C2NC(=O)/C(=C/C=C/c3ccco3)S2)cc1 | inconclusive [inhibitor, partial curve] |
| Cc1ccc2nc(NC(=O)Cc3cccs3)sc2c1 | inactive |
| CCOc1ccc(S(=O)(=O)N2CCN(c3cc(Cl)ccc3Cl)CC2)c2ccccc12 | inconclusive [inhibitor, full curve] |
